Records with an inconclusive call do not appear. The source holds more than one record for some entries. This is not the full list of results. There may be further records. Results that share an entry differ, and nothing given here explains why; they may come from other doses, times, organisms or constructs than stated.
System: B6C3F1 mice, colon carcinoma 38 s.c., T/C
Experiment: NCI In Vivo Anticancer Drug Screen. Data for tumor model Colon Carcinoma 38 (subcutaneous) in B6C3F1 mice
Details: endpoint: median survival time; dose: 200.0 mg/kg/injection; schedule: Q01DX001 (ip); vehicle: saline; higher = longer survival
Experimental: The antitumor activity of compounds was measured in mice bearing transplantable tumors. Survival or tumor size were measured and the results are expressed as the measurement made in the treated group (T) divided by the measurement made in the vehicle treated control group (C). The tumor model used in this assay is Colon Carcinoma 38 (subcutaneous) in B6C3F1 mice

SMILES: CCN(CC)CCOC(=O)Cc1cccc2c(=O)cc(-c3ccccc3)oc12
- T/C: 100 % of control and 169 % of control

Source: PubChem BioAssay AID214 (DTP/NCI, 2004)
